Source: PubChem BioAssay AID485364 (National Center for Advancing Translational Sciences (NCATS), 2010)
The whole screen tested about 360,000 compounds, of which about 11,000 (3.1%) were called active. The inconclusive results got no clear call from the source; some entries with a clear call stand among them for comparison. The call rests on the fitted dose curve; in most records, active means well fitted inhibition curve with a large enough effect; inconclusive means small, poorly fitted or top-dose-only effect; inactive means no such curve, though single readings can be large or run the other way. Potencies of inconclusive entries are left out as doubtful fits.

biological target: Schistosoma mansoni thioredoxin glutathione reductase (TGR) (UniProt Q962Y6); assay: qHTS Assay for the Inhibitors of Schistosoma Mansoni Peroxiredoxins; details: purified TGR, DTNB reduction, TNB absorbance 405 nm; activity change, negative = inhibition: at 114 µM (top of the series) unless noted; further: nearly all actives have a fitted effect of over 60% in size
Outline: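 TGR 20 nM + NADPH 100 uM (dispensed conc.), cpd preinc 15 min RT; start with NADPH (500 uM addition) then DTNB (15 mM addition). Kinetic TNB absorbance, 405 nm filter. Four-parameter Hill fit across titration.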
On the % scale 0 is the no-effect control and ±100 the full control effect; potency means the concentration at half of the fitted maximal effect; tags describe the fitted curve by direction and shape.

Question: For `O=C(CN1CCN(Cc2ccccc2F)C1=O)NCc1ccco1`, which Potency is on record?
Answer: active: 28.2 µM

Question: `Cc1ccc(NC(=S)NC(=O)c2ccc(-c3ccccc3)cc2)c(C)c1` was tested. Which Potency did it give?
Answer: inconclusive [inhibitor, single point]

Question: Which Potency does the source give for `CCCCCCNC(=O)N[C@H](C(=O)NCCC[C@H]1CN2C(=NC[C@H]2C)N1CCC(c1ccccc1)c1ccccc1)C(C)O` (some centres undefined) here?
Answer: active: 0.501 µM

Question: How did the “activity change, negative = inhibition” value turn out when `CC1CCC(C(C)C)C(OC(=O)CSc2n[nH]c(=O)[nH]c2=O)C1` (centres undefined) was run?
Answer: inactive: -0.507%

Question: How did the “activity change, negative = inhibition” value turn out when `COc1ccc(N2CCN(S(=O)(=O)c3cnc[nH]3)CC2)cc1` was run?
Answer: inactive: 16.3%

Question: `Cc1sc(NC(=O)c2cc3ccccc3oc2=O)c(C(=O)OC(C)C)c1-c1ccccc1` was tested. Which Potency did it give?
Answer: inconclusive [inhibitor, partial curve, poor fit]

Question: With `CCOC(=O)c1c(NC(=O)CCNCc2ccco2)sc2c1CCC2` as the molecule, how does the “activity change, negative = inhibition” value read?
Answer: inactive: -25%

Question: How did the Potency turn out when `O=S(=O)(CCN1CCN(c2ccccc2O)CC1)c1cc(Cl)ccc1Cl` was run?
Answer: inconclusive [inhibitor, partial curve]

Question: `CN(Cc1ccccc1)C(=O)CCS(=O)(=O)c1ccc2c(c1)oc(=O)n2C` was tested. Which Potency did it give?
Answer: inactive

Question: Which activity change, negative = inhibition does the source give for `CCc1ccccc1NC(=O)CSc1nnc(-c2ccco2)n1N` here?
Answer: inconclusive: -37.7% [inhibitor]

Question: For `Cc1ccc(CNC(=O)C2CCN(S(=O)(=O)c3cccs3)CC2)o1`, which Potency is on record?
Answer: active: 5.62 µM

Question: `CCn1cc(S(=O)(=O)c2cccc(Cl)c2)c(=O)c2cc(F)c(N3CCN(C)CC3)cc21` was tested. Which Potency did it give?
Answer: inconclusive [inhibitor, single point]

Question: `O=C(CNC(=O)c1sc2ccccc2c1Cl)NCc1ccc(F)cc1` was tested. Which “activity change, negative = inhibition” value did it give?
Answer: inactive: -6.39%

Question: Which “activity change, negative = inhibition” value does the source give for `CC1(C)Cc2nc3oc4c(=O)n(CC(=O)Nc5ccccc5)cnc4c3cc2CO1` here?
Answer: inactive: 3.45%

Question: How did the Potency turn out when `COc1ccc2c(c1)CCc1c(C(=O)NCc3ccc(Cl)cc3)noc1-2` was run?
Answer: inconclusive [inhibitor, single point]

Question: For `COc1ccc(OC)c(S(=O)(=O)NCC(c2ccco2)S(=O)(=O)c2ccccc2)c1` (centres undefined), which Potency is on record?
Answer: active: 0.316 µM

Question: For `CC1(C)Cc2c(C#N)c(N3CCN(C(=O)c4ccccc4)CC3)nc(-c3ccco3)c2CS1`, which Potency is on record?
Answer: active: 3.16 µM

Question: With `CCOC(=O)C1=C(C)NC(=S)NC1c1ccc(-c2cccc(Cl)c2C)o1` (centres undefined) as the molecule, how does the Potency read?
Answer: inconclusive [inhibitor, full curve, poor fit]

Question: With `Cc1ccccc1NC(=O)CCl` as the molecule, how does the Potency read?
Answer: active: 22.4 µM

Question: How did the Potency turn out when `COc1ccccc1-c1nnc(NC(=O)CCS(=O)(=O)c2ccccc2)o1` was run?
Answer: active: 39.8 µM

Question: `Cc1ccc(C(=O)NCC(=O)NCC(=O)OCC(=O)c2ccc([N+](=O)[O-])cc2)cc1` was tested. Which activity change, negative = inhibition did it give?
Answer: inconclusive: -46.9% [inhibitor]

Question: For `CCN(CC)CCCNC(=O)c1ccc(Cn2c(=O)[nH]c3cc(OC)c(OC)cc3c2=O)cc1`, which Potency is on record?
Answer: inconclusive [inhibitor, partial curve, poor fit]

Question: `CCOc1cc(/C=N\O)cc(Cl)c1OCC` was tested. Which Potency did it give?
Answer: inconclusive [inhibitor, full curve]

Question: Which “activity change, negative = inhibition” value does the source give for `Cc1ccc(C)c(CN2CCCN(CC(=O)Nc3ccc(C)c(C)c3)S2(=O)=O)c1` here?
Answer: inactive: 6.38%

Question: For `Cc1ccc(C(=O)NCc2ccco2)cc1S(=O)(=O)N1CCCCC1`, which Potency is on record?
Answer: inconclusive [inhibitor, partial curve]

Question: `CCCCCOc1ccc(CSc2n[nH]c(C)n2)cc1` was tested. Which Potency did it give?
Answer: inconclusive [inhibitor, partial curve]

Question: Which Potency does the source give for `CCOC(=O)C1=C(C)N(c2ccc(OC)cc2)C(=O)/C1=C\c1ccc(O)c(OCC)c1` here?
Answer: active: 4.47 µM

Question: Which Potency does the source give for `Cc1ccccc1N1C(=O)C2ON(c3ccccc3)C(c3ccncc3)C2C1=O` (centres undefined) here?
Answer: active: 44.7 µM

Question: Which “activity change, negative = inhibition” value does the source give for `CCCCOC(=O)c1ccc(NC(=O)c2csnn2)cc1` here?
Answer: inactive: -8.19%

Question: Which Potency does the source give for `O=C(NC1CCCCC1)c1ccc(CS(=O)Cc2ccc(Cl)cc2)o1` (centres undefined) here?
Answer: active: 44.7 µM

Question: For `CCOC(=O)c1ccc(NCc2ccc3c(c2)OCO3)cc1`, which “activity change, negative = inhibition” value is on record?
Answer: inactive: 21.1%

Question: How did the Potency turn out when `COc1cc(CN2CCNC(=O)C2CC(=O)N(Cc2nccn2C)C(C)C)cc(OC)c1` (centres undefined) was run?
Answer: inconclusive [inhibitor, full curve, poor fit]

Question: `CCCCN(CC)CCNC(=O)c1cc2c(=O)[nH]c3ccccc3c2s1` was tested. Which Potency did it give?
Answer: inconclusive [inhibitor, partial curve]

Question: `O=C(CCl)N1CCN(S(=O)(=O)c2ccc3c(c2)CCC3)CC1` was tested. Which Potency did it give?
Answer: active: 5.01 µM

Question: Which Potency does the source give for `Cc1ccc(NC(=O)CS(=O)CC(=O)N(CC(=O)NC2CCCC2)c2ccc3c(c2)OCCO3)cc1` (centres undefined) here?
Answer: inconclusive [inhibitor, single point]

Question: Which “activity change, negative = inhibition” value does the source give for `CCN(CC)S(=O)(=O)c1ccc2nc(SC)sc2c1` here?
Answer: inactive: 0.318%

Question: For `Cc1cccc(NC(=S)N2CCN(c3ccccn3)CC2)c1`, which Potency is on record?
Answer: inconclusive [inhibitor, partial curve, poor fit]

Question: Which Potency does the source give for `Nc1cc(N)nc(SCC(=O)c2ccccc2)n1` here?
Answer: inconclusive [inhibitor, full curve, poor fit]

Question: `Cc1cccc(NC(=O)COC(=O)c2ccc([N+](=O)[O-])o2)c1C` was tested. Which Potency did it give?
Answer: inconclusive [inhibitor, full curve]

Question: Which Potency does the source give for `O=S(=O)(Nc1ccc2c(c1)OCO2)c1ccc(Br)s1` here?
Answer: inconclusive [inhibitor, partial curve]

Question: `C[N+]1(C)CCC(=C2c3ccccc3CC(=O)c3sccc32)CC1` was tested. Which Potency did it give?
Answer: active: 28.2 µM

Question: `Cc1cc(Cn2nnc(-c3ccc(Br)cc3)n2)cc(C)c1O` was tested. Which “activity change, negative = inhibition” value did it give?
Answer: inactive: -29.9%

Question: How did the Potency turn out when `Cn1ccnc1CC(O)(c1ccccc1)c1ccccc1` was run?
Answer: inconclusive [inhibitor, single point]

Question: How did the “activity change, negative = inhibition” value turn out when `C=CCNc1oc(-c2ccc(OCC)cc2)nc1C#N` was run?
Answer: inactive: -15.2%

Question: How did the “activity change, negative = inhibition” value turn out when `O=[N+]([O-])c1cc(S(=O)(=O)c2ccc(N3CCCCC3)c([N+](=O)[O-])c2)ccc1N1CCCCC1` was run?
Answer: inactive: 0.856%

Question: Which Potency does the source give for `COc1ccc(N=C2S/C(=C\c3ccc(C)o3)C(=O)N2CC(C)C)cc1` here?
Answer: inconclusive [inhibitor, full curve]

Question: For `CCOc1ccc(N2C(=O)CC(n3nc(C)cc3C)C2=O)cc1` (centres undefined), which Potency is on record?
Answer: inconclusive [inhibitor, partial curve]

Question: How did the Potency turn out when `O=C(Nc1ccc(S(=O)(=O)NCc2ccco2)cc1)C1CCCCC1` was run?
Answer: inconclusive [inhibitor, full curve, poor fit]

Question: With `Cc1c(C(c2cccc(Br)c2)c2c(C)n(C)n(-c3ccccc3)c2=O)c(=O)n(-c2ccccc2)n1C` as the molecule, how does the Potency read?
Answer: inconclusive [inhibitor, partial curve]

Question: With `CCOc1ccc2[nH]cc(-c3csc(N)n3)c2c1` as the molecule, how does the Potency read?
Answer: inconclusive [inhibitor, partial curve]

Question: How did the Potency turn out when `COc1ccc(C(C[N+](=O)[O-])c2c(C)cc3ccccn23)cc1` (centres undefined) was run?
Answer: active: 28.2 µM

Question: With `CCOc1ccc(N2C(=O)NC(=O)/C(=C/c3cnc(SC)nc3)C2=O)cc1` as the molecule, how does the Potency read?
Answer: active: 8.91 µM

Question: Which “activity change, negative = inhibition” value does the source give for `O=C(NCc1ccco1)c1cc(S(=O)(=O)N2CCCC2)ccc1Cl` here?
Answer: inactive: -11.8%

Question: How did the Potency turn out when `CCN(C(=O)CSc1nnc(C(C)N(C)C)n1-c1ccc(F)cc1)C1CCS(=O)(=O)C1` (centres undefined) was run?
Answer: inconclusive [inhibitor, partial curve]

Question: With `Cc1cccc(C(=O)NC(=S)Nc2cccc3nc(C)ccc23)c1` as the molecule, how does the Potency read?
Answer: inconclusive [inhibitor, full curve]

Question: How did the Potency turn out when `O=c1[nH]c(=O)n(CCC2=CCCCC2)c(O)c1C=Nc1cccc(F)c1` was run?
Answer: inconclusive [inhibitor, full curve]

Question: For `COc1ccc(N(C)C(=O)c2ccc3snnc3c2)cc1`, which “activity change, negative = inhibition” value is on record?
Answer: inactive: -8.27%

Question: `O=C(C1CCN(c2nc3nonc3nc2N2CCCCC2)CC1)N1CCOCC1` was tested. Which Potency did it give?
Answer: inconclusive [inhibitor, partial curve]

Question: Which “activity change, negative = inhibition” value does the source give for `COc1ccc(Cl)cc1NC(=O)CSc1ccc2nnc(CCNS(=O)(=O)c3ccccc3)n2n1` here?
Answer: inactive: -3.39%

Question: With `Cc1cccc(Oc2ccc(NC(=O)c3ccccc3C(=O)O)cc2)c1C` as the molecule, how does the Potency read?
Answer: inconclusive [inhibitor, single point]

Question: With `CCCCC1(C(=O)OC)NC(c2ccc(O)cc2)C2C(=O)N(c3ccccc3)C(=O)C21` (centres undefined) as the molecule, how does the “activity change, negative = inhibition” value read?
Answer: inactive: 1.64%

Question: `CCOc1ccc(C2C(C(=O)c3ccc(C)o3)=C(O)C(=O)N2CCN2CCOCC2)cc1OC` (centres undefined) was tested. Which Potency did it give?
Answer: active: 50.1 µM

Question: `COc1cc(O)c(C(CCN2CCOCC2)c2ccc(N(C)C)cc2)c(OC)c1` (centres undefined) was tested. Which Potency did it give?
Answer: inconclusive [inhibitor, partial curve]

Question: `Cc1cc(C)c(OCC(=O)OC(C)C(=O)NCc2ccccc2)c(C)c1` (centres undefined) was tested. Which “activity change, negative = inhibition” value did it give?
Answer: inactive: 1.86%

Question: How did the Potency turn out when `Cc1ccc(-n2c(SCC(=O)NCc3ccco3)nc3nc4c(cc3c2=O)COC(C)(C)C4)cc1` was run?
Answer: active: 22.4 µM

Question: How did the Potency turn out when `S=C1NC2=C(CCCC2=C2SCCCS2)C(c2ccccc2)N1` (centres undefined) was run?
Answer: inconclusive [inhibitor, partial curve]

Question: With `CCCC1=NN2C(=N)/C(=C\c3ccc(SCc4ccco4)o3)C(=O)N=C2S1` as the molecule, how does the Potency read?
Answer: inconclusive [inhibitor, full curve]

Question: `CCOC(=O)C(=NCC1CCCO1)NNc1cc(Cl)ccc1Cl` (centres undefined) was tested. Which Potency did it give?
Answer: inconclusive [inhibitor, partial curve, poor fit]

Question: `COc1ccc(C(=O)N/N=C/c2sc(=O)n(Cc3cccc(C(=O)O)c3)c2Cl)cc1` was tested. Which Potency did it give?
Answer: active: 22.4 µM

Question: For `COc1ccccc1CNC(=O)C(=O)NCC(c1cccs1)S(=O)(=O)c1cccs1` (centres undefined), which Potency is on record?
Answer: active: 25.1 µM

Question: For `O=C(Nc1ccc(Nc2ccccc2)cc1)c1ccc(Br)cc1`, which “activity change, negative = inhibition” value is on record?
Answer: inactive: -8.71%

Question: How did the Potency turn out when `Cc1cc(NC(=O)c2ccccc2)sc1C` was run?
Answer: inconclusive [inhibitor, partial curve]

Question: With `Cc1cn([C@@H](CCCCNC(=O)OC(C)(C)C)C(=O)NCCCCCCCCCCC(=O)N2CCN(C(=O)OC(C)(C)C)CC2)nn1` as the molecule, how does the “activity change, negative = inhibition” value read?
Answer: inactive: -7.39%

Question: For `COc1ccc(-c2csc(NC(=O)COC(=O)c3ccco3)n2)cc1`, which Potency is on record?
Answer: inconclusive [inhibitor, partial curve]
